According to article PMC7948425:
Results are given in words; binding and its absence hold for the method and conditions named. In cells and extracts the contact can be indirect. Some results given as binding are weak or reduced against the parent protein; the word gives no strength. For some of these results: Where a sequence is shown, tags or fusion partners need not be part of it.

By UniProt entry, the sequences of proteins in these tests, tags left out.
UniProt Q9UQE7: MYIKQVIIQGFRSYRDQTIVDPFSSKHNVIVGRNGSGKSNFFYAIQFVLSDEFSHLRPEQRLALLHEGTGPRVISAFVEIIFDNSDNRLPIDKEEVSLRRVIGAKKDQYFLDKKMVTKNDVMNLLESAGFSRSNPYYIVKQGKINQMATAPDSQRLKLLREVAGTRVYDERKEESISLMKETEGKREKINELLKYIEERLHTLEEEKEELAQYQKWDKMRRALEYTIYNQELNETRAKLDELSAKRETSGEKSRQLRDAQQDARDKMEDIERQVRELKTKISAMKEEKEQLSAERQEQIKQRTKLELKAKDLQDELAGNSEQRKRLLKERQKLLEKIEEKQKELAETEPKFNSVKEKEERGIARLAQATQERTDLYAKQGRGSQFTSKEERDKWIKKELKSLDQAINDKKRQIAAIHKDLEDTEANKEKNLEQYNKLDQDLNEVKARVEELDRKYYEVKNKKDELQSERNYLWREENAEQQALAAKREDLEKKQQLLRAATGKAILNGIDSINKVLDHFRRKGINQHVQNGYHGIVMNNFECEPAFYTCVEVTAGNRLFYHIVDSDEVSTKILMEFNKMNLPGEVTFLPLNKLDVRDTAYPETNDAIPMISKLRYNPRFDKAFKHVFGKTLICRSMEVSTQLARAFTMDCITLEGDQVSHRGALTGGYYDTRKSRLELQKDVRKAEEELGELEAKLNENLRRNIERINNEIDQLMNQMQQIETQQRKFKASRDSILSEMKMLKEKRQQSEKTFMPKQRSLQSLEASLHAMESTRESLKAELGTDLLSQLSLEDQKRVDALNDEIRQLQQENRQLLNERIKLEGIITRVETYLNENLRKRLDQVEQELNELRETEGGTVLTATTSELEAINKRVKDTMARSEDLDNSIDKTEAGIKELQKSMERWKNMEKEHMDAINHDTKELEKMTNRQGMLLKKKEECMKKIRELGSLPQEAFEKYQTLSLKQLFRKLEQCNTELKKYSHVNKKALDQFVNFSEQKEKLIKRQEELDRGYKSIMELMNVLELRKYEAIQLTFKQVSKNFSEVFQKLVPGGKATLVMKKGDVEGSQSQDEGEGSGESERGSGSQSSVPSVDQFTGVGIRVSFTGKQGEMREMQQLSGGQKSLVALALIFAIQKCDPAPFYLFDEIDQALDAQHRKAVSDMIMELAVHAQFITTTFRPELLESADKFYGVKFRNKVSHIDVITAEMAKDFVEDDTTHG

Tests used:
[1] = target: SMC3 with FLAG/streptavidin binding peptide dual epitope tag, from the gene-edited endogenous allele (human (endogenous in HCT116)) (UniProt Q9UQE7); assay: co-IP; dual-affinity purification (FLAG/SBP) from nuclear extracts (1 or 2 mg) of HCT116 epitope-tagged derivatives and parental cells, Western blot with USP13 and FLAG antibodies
[2] = target: T1, WAPL with FLAG/streptavidin binding peptide dual epitope tag, from the gene-edited endogenous allele (human (endogenous in HCT116)) (UniProt Q7Z5K2); assay: as above
T1 sequence: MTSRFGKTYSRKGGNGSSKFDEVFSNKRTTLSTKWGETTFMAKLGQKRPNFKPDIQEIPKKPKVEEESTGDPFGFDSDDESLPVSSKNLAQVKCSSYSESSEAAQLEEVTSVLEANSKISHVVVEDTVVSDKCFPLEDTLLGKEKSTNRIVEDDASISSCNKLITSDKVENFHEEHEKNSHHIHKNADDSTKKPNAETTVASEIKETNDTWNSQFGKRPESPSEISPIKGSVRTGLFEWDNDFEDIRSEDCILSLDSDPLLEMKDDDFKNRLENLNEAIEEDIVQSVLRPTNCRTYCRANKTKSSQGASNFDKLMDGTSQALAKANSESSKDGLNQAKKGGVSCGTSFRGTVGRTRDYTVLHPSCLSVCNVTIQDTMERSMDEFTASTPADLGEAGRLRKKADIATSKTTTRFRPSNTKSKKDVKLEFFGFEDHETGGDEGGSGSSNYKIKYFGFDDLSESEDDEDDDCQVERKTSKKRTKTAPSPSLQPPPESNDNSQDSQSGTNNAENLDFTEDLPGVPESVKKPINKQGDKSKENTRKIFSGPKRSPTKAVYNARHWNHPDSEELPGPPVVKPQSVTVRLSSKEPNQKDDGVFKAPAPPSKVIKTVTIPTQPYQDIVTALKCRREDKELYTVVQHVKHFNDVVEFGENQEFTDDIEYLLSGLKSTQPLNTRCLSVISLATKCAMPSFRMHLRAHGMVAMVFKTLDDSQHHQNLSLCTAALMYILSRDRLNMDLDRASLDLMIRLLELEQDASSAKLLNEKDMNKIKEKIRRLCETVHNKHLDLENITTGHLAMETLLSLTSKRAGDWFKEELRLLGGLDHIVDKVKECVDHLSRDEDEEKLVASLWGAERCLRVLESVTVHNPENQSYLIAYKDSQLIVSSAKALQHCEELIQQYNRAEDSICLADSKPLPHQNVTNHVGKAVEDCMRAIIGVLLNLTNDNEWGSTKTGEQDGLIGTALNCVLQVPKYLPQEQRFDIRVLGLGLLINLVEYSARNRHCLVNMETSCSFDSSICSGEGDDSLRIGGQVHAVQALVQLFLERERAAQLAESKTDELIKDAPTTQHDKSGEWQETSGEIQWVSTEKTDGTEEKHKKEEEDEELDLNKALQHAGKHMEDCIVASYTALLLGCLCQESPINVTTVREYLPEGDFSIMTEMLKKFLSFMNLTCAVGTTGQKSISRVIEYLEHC

[3] = target: T2, STAG2 with FLAG/streptavidin binding peptide dual epitope tag, from the gene-edited endogenous allele (human (endogenous in HCT116)) (UniProt Q8N3U4); assay: as above
T2 sequence: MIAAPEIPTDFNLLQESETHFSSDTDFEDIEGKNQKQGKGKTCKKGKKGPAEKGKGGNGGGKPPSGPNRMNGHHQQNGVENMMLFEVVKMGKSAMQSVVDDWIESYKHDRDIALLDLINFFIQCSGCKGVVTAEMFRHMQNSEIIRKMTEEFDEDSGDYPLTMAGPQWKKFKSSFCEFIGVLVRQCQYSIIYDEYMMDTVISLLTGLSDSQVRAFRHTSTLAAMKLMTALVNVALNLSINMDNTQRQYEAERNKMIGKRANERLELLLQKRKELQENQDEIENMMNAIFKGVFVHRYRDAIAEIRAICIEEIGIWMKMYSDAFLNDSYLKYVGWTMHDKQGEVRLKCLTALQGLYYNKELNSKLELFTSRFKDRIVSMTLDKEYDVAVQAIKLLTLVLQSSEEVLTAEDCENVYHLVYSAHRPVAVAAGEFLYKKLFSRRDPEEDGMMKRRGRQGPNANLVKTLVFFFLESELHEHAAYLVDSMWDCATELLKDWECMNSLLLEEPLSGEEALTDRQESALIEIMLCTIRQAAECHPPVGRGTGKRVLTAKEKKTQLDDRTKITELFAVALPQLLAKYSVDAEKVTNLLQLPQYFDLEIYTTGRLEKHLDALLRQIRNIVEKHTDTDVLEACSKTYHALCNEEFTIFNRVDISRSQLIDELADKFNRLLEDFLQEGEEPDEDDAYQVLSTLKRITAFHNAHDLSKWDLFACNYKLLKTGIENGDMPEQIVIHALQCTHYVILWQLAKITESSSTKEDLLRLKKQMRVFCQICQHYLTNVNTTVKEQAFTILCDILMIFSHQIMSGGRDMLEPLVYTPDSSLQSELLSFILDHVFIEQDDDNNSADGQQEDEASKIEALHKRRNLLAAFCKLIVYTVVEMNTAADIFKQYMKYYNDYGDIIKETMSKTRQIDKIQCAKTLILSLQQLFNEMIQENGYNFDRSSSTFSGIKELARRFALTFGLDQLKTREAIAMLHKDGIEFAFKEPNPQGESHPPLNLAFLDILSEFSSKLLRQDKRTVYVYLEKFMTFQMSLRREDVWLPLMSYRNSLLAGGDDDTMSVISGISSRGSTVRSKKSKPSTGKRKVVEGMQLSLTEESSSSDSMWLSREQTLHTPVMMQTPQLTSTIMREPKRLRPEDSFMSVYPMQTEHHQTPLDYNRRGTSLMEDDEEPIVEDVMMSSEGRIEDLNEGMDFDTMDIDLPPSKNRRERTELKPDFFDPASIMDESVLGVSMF

[4] = target: SMC3, endogenous (human (endogenous in HCT116, 293T, HeLa, RPE-hTERT)) (UniProt Q9UQE7); assay: co-IP; SMC3 antibody on soluble and chromatin fractions of 293T cells; Western blot with STAG2 and USP13 antibodies

binding [1]: binds
binding [2]: binds
binding [3]: binds
binding [4]: binds
B1: Ubiquitin-Specific Protease 13 (USP13), endogenous (enzyme, UniProt Q92995 1-863)
chain: MQRRGALFGMPGGSGGRKMAAGDIGELLVPHMPTIRVPRSGDRVYKNECAFSYDSPNSEGGLYVCMNTFLAFGREHVERHFRKTGQSVYMHLKRHVREKVRGASGGALPKRRNSKIFLDLDTDDDLNSDDYEYEDEAKLVIFPDHYEIALPNIEELPALVTIACDAVLSSKSPYRKQDPDTWENELPVSKYANNLTQLDNGVRIPPSGWKCARCDLRENLWLNLTDGSVLCGKWFFDSSGGNGHALEHYRDMGYPLAVKLGTITPDGADVYSFQEEEPVLDPHLAKHLAHFGIDMLHMHGTENGLQDNDIKLRVSEWEVIQESGTKLKPMYGPGYTGLKNLGNSCYLSSVMQAIFSIPEFQRAYVGNLPRIFDYSPLDPTQDFNTQMTKLGHGLLSGQYSKPPVKSELIEQVMKEEHKPQQNGISPRMFKAFVSKSHPEFSSNRQQDAQEFFLHLVNLVERNRIGSENPSDVFRFLVEERIQCCQTRKVRYTERVDYLMQLPVAMEAATNKDELIAYELTRREAEANRRPLPELVRAKIPFSACLQAFSEPENVDDFWSSALQAKSAGVKTSRFASFPEYLVVQIKKFTFGLDWVPKKFDVSIDMPDLLDINHLRARGLQPGEEELPDISPPIVIPDDSKDRLMNQLIDPSDIDESSVMQLAEMGFPLEACRKAVYFTGNMGAEVAFNWIIVHMEEPDFAEPLTMPGYGGAASAGASVFGASGLDNQPPEEIVAIITSMGFQRNQAIQALRATNNNLERALDWIFSHPEFEEDSDFVIEMENNANANIISEAKPEGPRVKDGSGTYELFAFISHMGTSTMSGHYICHIKKEGRWVIYNDHKVCASERPPKDLGYMYFYRRIPS
